Experimental findings from the GPR68 mutational scans of Howard et al. (2025) are described below.

B1: GPR68, Q15743 (parent)
chain: MGNITADNSSMSCTIDHTIHQTLAPVVYVTVLVVGFPANCLSLYFGYLQIKARNELGVYLCNLTVADLFYICSLPFWLQYVLQHDNWSHGDLSCQVCGILLYENIYISVGFLCCISVDRYLAVAHPFRFHQFRTLKAAVGVSVVIWAKELLTSIYFLMHEEVIEDENQHRVCFEHYPIQAWQRAINYYRFLVGFLFPICLLLASYQGILRAVRRSHGTQKSRKDQIQRLVLSTVVIFLACFLPYHVLLLVRSVWEASCDFAKGVFNAYHFSLLLTSFNCVADPVLYCFVSETTHRDLARLRGACLAFLTCSRTGRAREAYPLGAPEASGKSGAQGEEPELLTKLHPAFQTPNSPGSGGFPTGRLA

The least precise scores are not listed. The source holds two more conditions with little spread; they are left out. Names with del lack the residues named; names with ins carry added residues between the positions named. For some assays here: How much ogerin was present is not stated here.

Series [1] covers variants of B1. As to the kind of experiment: cAMP reporter score (Enrich2 score, wild type = 0); higher = more signal; HEK293T, FACS bins.
The variants in series [2] derive from B1. As to the kind of experiment: surface expression score (Enrich2 score, wild type = 0); higher = more signal; HEK293T, FACS bins.

For the variant V96_C97del, the cAMP reporter score in series [1] (pH 5.5) was -1.54; in series [1] (pH 6) it was -0.569; in series [1] (pH 6, modulator: ogerin) it was -1.18; in series [1] (pH 6.5, modulator: ogerin), -1.22. The surface expression score in series [2] was -1.95.

Consider W87S, for which the cAMP reporter score is -1.39 in series [1] (pH 5.5); -0.545 in series [1] (pH 6); -1.24 in series [1] (pH 6, modulator: ogerin); -0.747 in series [1] (pH 6.5, modulator: ogerin). Also, in series [2], the surface expression score is 0.545.

Consider W87I, for which the cAMP reporter score in series [1] (pH 5.5) is -0.56; in series [1] (pH 6), -0.479; in series [1] (pH 6, modulator: ogerin), -0.669; in series [1] (pH 6.5, modulator: ogerin), -0.883. Further, the surface expression score in series [2] was -1.78.

Regarding W87V, the cAMP reporter score is -1.17 in series [1] (pH 5.5); -0.232 in series [1] (pH 6); -1.63 in series [1] (pH 6, modulator: ogerin); -0.439 in series [1] (pH 6.5, modulator: ogerin). Further, the surface expression score in series [2] amounted to 0.309.

For W87L, the cAMP reporter score is -1.42 in series [1] (pH 5.5) and -0.84 in series [1] (pH 6.5, modulator: ogerin). In addition, the surface expression score in series [2] was 0.213.

As for W87P, the cAMP reporter score is -0.557 in series [1] (pH 5.5); -1.21 in series [1] (pH 6); -0.329 in series [1] (pH 6, modulator: ogerin); -1.18 in series [1] (pH 6.5, modulator: ogerin). Moreover, the surface expression score in series [2] is -0.29.

As for W87N, the cAMP reporter score was -1.94 in series [1] (pH 5.5); -0.74 in series [1] (pH 6); -0.497 in series [1] (pH 6, modulator: ogerin); -1.16 in series [1] (pH 6.5, modulator: ogerin). For the same variant, the surface expression score in series [2] is -1.33.

Regarding W87E, the cAMP reporter score in series [1] (pH 5.5) was -1.49; in series [1] (pH 6) it was -1.47; in series [1] (pH 6.5, modulator: ogerin), -1.14. Moreover, the surface expression score in series [2] was -0.445.

W87G: the cAMP reporter score in series [1] (pH 5.5) is -1.83; in series [1] (pH 6), -1.14; in series [1] (pH 6, modulator: ogerin), -0.6; in series [1] (pH 6.5, modulator: ogerin), -1.61. For the same variant, the surface expression score in series [2] was -0.576.

On to W87C, for which the cAMP reporter score in series [1] (pH 5.5) is -1.98; in series [1] (pH 6), -0.965; in series [1] (pH 6, modulator: ogerin), -1.59; in series [1] (pH 6.5, modulator: ogerin) it was -1.39. For the same variant, the surface expression score in series [2] is -0.733.

For W87H, the cAMP reporter score is -1.45 in series [1] (pH 5.5); -0.51 in series [1] (pH 6); -1.09 in series [1] (pH 6, modulator: ogerin); -0.679 in series [1] (pH 6.5, modulator: ogerin). Further, in series [2], the surface expression score is -0.045.

As to W87R, the cAMP reporter score in series [1] (pH 5.5) was -0.917; in series [1] (pH 6) it was -1.29; in series [1] (pH 6, modulator: ogerin) it was -1.3; in series [1] (pH 6.5, modulator: ogerin) it was -1.07. Moreover, the surface expression score in series [2] came to 0.007.

As for W87Y, the cAMP reporter score in series [1] (pH 5.5) was -0.929; in series [1] (pH 6) it was -0.181; in series [1] (pH 6, modulator: ogerin) it was -0.635; in series [1] (pH 6.5, modulator: ogerin), -1.62. The surface expression score in series [2] turned out to be 0.67.

Consider W87T, for which the cAMP reporter score in series [1] (pH 5.5) is -0.625; in series [1] (pH 6, modulator: ogerin) it was -1.34; in series [1] (pH 6.5, modulator: ogerin) it was -0.303. Further, the surface expression score in series [2] is -0.006.

With W87D, the cAMP reporter score in series [1] (pH 5.5) was -1.94; in series [1] (pH 6.5, modulator: ogerin), -1.38. In series [2], the surface expression score was -0.594.

Regarding W87K, the cAMP reporter score was -1.69 in series [1] (pH 5.5); -0.957 in series [1] (pH 6); -1.71 in series [1] (pH 6, modulator: ogerin); -1.15 in series [1] (pH 6.5, modulator: ogerin). Besides, the surface expression score in series [2] is -0.465.

For W87F, the cAMP reporter score was -1.44 in series [1] (pH 5.5); -1.06 in series [1] (pH 6); -1.86 in series [1] (pH 6, modulator: ogerin); -1.75 in series [1] (pH 6.5, modulator: ogerin). The surface expression score in series [2] was -0.553.

Take W87M: the cAMP reporter score is -1.6 in series [1] (pH 5.5); -0.728 in series [1] (pH 6); -0.968 in series [1] (pH 6, modulator: ogerin); -0.588 in series [1] (pH 6.5, modulator: ogerin). Further, in series [2], the surface expression score is -0.83.

Turning to W87A, the cAMP reporter score in series [1] (pH 5.5) is -0.652; in series [1] (pH 6), -0.553; in series [1] (pH 6, modulator: ogerin) it was -1.82; in series [1] (pH 6.5, modulator: ogerin), -0.001. Besides, in series [2], the surface expression score was -1.4.

On to W87Q, for which the cAMP reporter score was -1.04 in series [1] (pH 5.5); -0.342 in series [1] (pH 6); -1.37 in series [1] (pH 6, modulator: ogerin); -0.996 in series [1] (pH 6.5, modulator: ogerin). Besides, in series [2], the surface expression score is -1.5.

Regarding L100_L101insG, the cAMP reporter score in series [1] (pH 5.5) was -1.07; in series [1] (pH 6), -0.42; in series [1] (pH 6, modulator: ogerin), -1.68; in series [1] (pH 6.5, modulator: ogerin), -1.28. Also, the surface expression score in series [2] was -3.35.

In the case of V96Q, the cAMP reporter score is -1.5 in series [1] (pH 5.5); -0.681 in series [1] (pH 6); -0.367 in series [1] (pH 6, modulator: ogerin); -0.893 in series [1] (pH 6.5, modulator: ogerin). Moreover, the surface expression score in series [2] is -2.02.

With V96W, the cAMP reporter score in series [1] (pH 5.5) was -0.513; in series [1] (pH 6), -0.947; in series [1] (pH 6, modulator: ogerin) it was -1.28; in series [1] (pH 6.5, modulator: ogerin) it was -0.967. Besides, the surface expression score in series [2] is -0.02.

On to V96R, for which the cAMP reporter score in series [1] (pH 5.5) is -1.19; in series [1] (pH 6) it was -0.366; in series [1] (pH 6, modulator: ogerin), -1.28; in series [1] (pH 6.5, modulator: ogerin), -1.27. Further, the surface expression score in series [2] was -1.57.

Consider V96H, for which the cAMP reporter score in series [1] (pH 5.5) is -1.59; in series [1] (pH 6, modulator: ogerin) it was -3.12; in series [1] (pH 6.5, modulator: ogerin), 0.054.

Turning to V96A, the cAMP reporter score in series [1] (pH 5.5) was -0.4; in series [1] (pH 6), -0.574; in series [1] (pH 6, modulator: ogerin), -1.75; in series [1] (pH 6.5, modulator: ogerin), 0.079. In addition, the surface expression score in series [2] amounted to 0.48.

On to V96S, for which the cAMP reporter score in series [1] (pH 5.5) was -2.04; in series [1] (pH 6), -1.07; in series [1] (pH 6, modulator: ogerin) it was -1.39; in series [1] (pH 6.5, modulator: ogerin), -1.07. In addition, the surface expression score in series [2] is -1.68.

As for V96M, the cAMP reporter score is -0.823 in series [1] (pH 5.5); -0.793 in series [1] (pH 6); -1.12 in series [1] (pH 6, modulator: ogerin); -1.19 in series [1] (pH 6.5, modulator: ogerin). In series [2], the surface expression score was -0.812.

Consider V96G, for which the cAMP reporter score in series [1] (pH 5.5) was -0.387. In series [2], the surface expression score is -1.35.

For the variant V96F, the cAMP reporter score is 0.909 in series [1] (pH 5.5); 0.824 in series [1] (pH 6); -1.15 in series [1] (pH 6, modulator: ogerin).

As to V96Y, the cAMP reporter score in series [1] (pH 5.5) is -0.586; in series [1] (pH 6), -0.279; in series [1] (pH 6.5, modulator: ogerin), -0.608. The surface expression score in series [2] was -0.282.

V96L: the cAMP reporter score in series [1] (pH 5.5) amounted to 1.25; in series [1] (pH 6), 1.45; in series [1] (pH 6, modulator: ogerin), 0.117; in series [1] (pH 6.5, modulator: ogerin), 0.22. Besides, the surface expression score in series [2] stood at 0.524.
